“And” between values parts separate entries of the source, which are not always exact repeats. Equal values may be shown once. In all, about 1,200 compounds went through this assay and about 30 (2%) were called active. Not shown: some 23% with an inconclusive outcome. Calls come from the whole dose curve; as a rule, active = well fitted inhibition curve with a large enough effect; inconclusive = small, poorly fitted or top-dose-only effect; inactive = flat fitted curve, though single readings scatter. Some of the results follow.
biological target: Single-stranded DNA cytosine deaminase (Homo sapiens) (UniProt Q9GZX7); test: Confirmatory qHTS assay for inhibitors of Activation Induced Cytidine Deaminase (AID): AID signals; conditions: recombinant AID, FRET deamination/UDG coupled fluorescence, 4 h; series mostly up to 115 µM; activity, negative = inhibition: at the top concentration
Chain of UniProt Q9GZX7 (Q9GZX7 whole entry, looked up): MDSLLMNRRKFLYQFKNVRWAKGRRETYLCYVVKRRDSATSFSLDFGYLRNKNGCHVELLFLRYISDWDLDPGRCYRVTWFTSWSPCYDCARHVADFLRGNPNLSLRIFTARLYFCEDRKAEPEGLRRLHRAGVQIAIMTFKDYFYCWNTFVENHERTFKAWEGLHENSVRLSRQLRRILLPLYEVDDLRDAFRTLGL
Procedure, shortened: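 Read 1 (AID) was measured at 540 ex/590 em after a 30 min NaOH step. The reaction was AID (1 uM, 4/3x stock) with UDG, compound at final 7.32 nM - 114 uM for 10 min, then DJC20/DJC23 substrate for 4 hr at room temperature. A UDG read at 560/665 serves as counterscreen.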
% is set by controls: 0 for no effect and ±100 for the full control effect; potency is the fitted concentration of half-maximal effect.

activity, negative = inhibition, inactive:
CN(Cc1ccc(F)cc1)S(=O)(=O)c1nnc(NC(=O)c2ccccc2Br)s1 -2.5%
O=C1c2ccccc2C(=O)c2c(NCCc3ccc(O)cc3)ccc(NCCc3ccc(O)cc3)c21 4.87%
CCC(C(=O)N1CCN(c2cc(C)ccc2C)CC1)n1nc(C)n2c(cc3occc32)c1=O (stereo not drawn) -20%
Cc1ccc(C)c(N2CCN(C(=O)c3ccc4c(c3)N(Cc3ccc(F)cc3)C(=O)c3ccccc3S4=O)CC2)c1 (stereo not drawn) -0.614%
Cc1cc(N)c(-n2cc3c(c2-c2ccc(Br)cc2)c(=O)n(C)c(=O)n3C)cc1C 0.306%
Cc1cccc(N2CCN(C(=O)c3ccc(CS(=O)c4cccc(Cl)c4)o3)CC2)c1C (stereo not drawn) -18.4%
CCCOc1ccc(-c2cc(C(F)(F)F)c(C#N)c(SCCC(=O)O)n2)cc1 -18.2%
CC(=O)N1CCc2c(sc3c2c(=O)n(CCc2ccccc2)c(=O)n3Cc2ccccc2C)C1 -11.6%
Cc1ccc(C)c(N2CCN(CCCNC(=O)c3ccc4nc(N5CCC(C)CC5)sc4c3)CC2)c1 -23.7%
CC(C)(C)OC(=O)N1CCC(c2c(C(=O)NCc3ccccc3)cnn2-c2ccc(F)cc2)CC1 -2.28%
O=C(c1cccn1-c1nnc(N2CCCCC2)s1)N1CCN(c2ccc(Cl)cc2)CC1 -25.6%
CC(C)(C)C1CCc2c(sc(NC(=O)c3ccccc3F)c2C(=O)NCc2ccco2)C1 (stereo not drawn) -7.85%
Cc1nn(C(=O)c2ccccc2)c(C)c1Sc1ccc(Cl)cc1 -0.0901%
Cc1ccc(C2=NN(CC(=O)NCCCN(CC(C)C)CC(C)C)C(=O)CC2)cc1 -12.2%
CCCN(CCC)CCNC(=O)c1cc2c(-c3ccc(Cl)cc3)nn(C)c2s1 -17.5%
CSc1cccc(NC(=O)CC(c2cccs2)N2Cc3ccccc3C2=O)c1 (stereo not drawn) -5.77%
CCCCN(CCCC)CCNC(=O)c1cn(CC)c2ccc(S(=O)(=O)N3CCc4ccccc4C3)cc2c1=O -29%
Cc1ccc(C)c(CSc2ccc3nnc(CCNS(=O)(=O)c4ccccc4)n3n2)c1 -16.2%
Cc1cccc(CSc2ccc3nnc(CCNS(=O)(=O)c4ccccc4)n3n2)c1 -23.8%
O=C(NCCc1csc(-c2ccc(Cl)cc2)n1)c1cccs1 -18.5%
CCN(CC)C(=O)CSc1nc(-c2ccccc2F)nc2c1Cc1c(CO)cnc(C)c1O2 -20.7%
CN(c1ncnc2onc(-c3cccc(Cl)c3)c12)C1CCCCC1 -20.3%
Cc1cccc(C)c1-n1ncc(C(=O)N2CCN(c3ccccc3)CC2)c1C1CCN(C(=O)OC(C)(C)C)CC1 -20.5%
Cc1nc2nc(SCC(=O)NCc3ccccc3Cl)nn2c(C)c1Cc1ccccc1 -17.7%
Fc1cc(Br)ccc1Nc1c2c(nc3nc(-c4cccs4)nn13)CCCC2 -13.6%
CCn1cc(C(=O)NCc2ccccc2OC)c(=O)c2cc(S(=O)(=O)N3CCCCC3)ccc21 -17.3%
Cc1ccc(-c2noc(CN(C(=O)c3ccc(C(C)(C)C)cc3)C(C)C)n2)cc1 -14.1%
Cc1ccc(Nc2c3c(nc4ccccc24)CCC3)cc1F -9.11%
CCOC(=O)C1=C(CN(CC)Cc2ccccc2)NC(=O)NC1c1ccc(Cl)cc1 (stereo not drawn) -14%
CCN(C(=O)c1nn(C)c2c1CSc1ccccc1-2)c1cccc(C)c1 -6.9%
Cc1ccc(Cc2nc3ccccc3nc2SCC(=O)N2CCCCC2)cc1 -2.18%
COc1ccc(CSc2nc3ccncc3n2Cc2nc(-c3ccc(OC)c(OC)c3)oc2C)cc1 -8.72%
Cc1nc2c(-c3ccccc3)c(C)nn2c(C)c1CCC(=O)N1CCN(c2ccc(F)cc2)CC1 -4.26%
O=C(NCCc1ccccc1)c1sc2ncccc2c1-n1cccc1 -19.5%
Cc1ccccc1-c1nc(CS(=O)CC(=O)N2CCN(c3cc(Cl)ccc3C)CC2)c(C)o1 (stereo not drawn) -9.58%
Cc1[nH]c2ccccc2c1C(c1ccccc1)c1cccs1 (stereo not drawn) -10.5%
Clc1ccc(-c2noc3ncnc(NCCCN4CCN(c5ccccc5)CC4)c23)cc1 0.554%
CCc1ccccc1Nc1nn2c(=O)c3ccc(C(=O)NCc4cccs4)cc3nc2s1 -5.96%
CCOc1ccc(-c2nc(CSCC(=O)N3CCN(c4cccc(C(F)(F)F)c4)CC3)c(C)o2)cc1 -17.9%
Clc1cccc(N2CCN(c3ncnc4c3nc3n4CCCCC3)CC2)c1 -20.2%
CCc1ccc(NC(=O)c2cc(C(C)=O)n3ccccc23)cc1 0.291%
Cc1cc(C)c(NC(=O)Cn2c(=O)n(Cc3ccc(C(=O)NCc4ccc5c(c4)OCO5)cc3)c(=O)c3ccccc32)c(C)c1 -29.8%
Cc1ccc(NC(=O)c2oc3c(c2C)-c2[nH]ncc2CC3)c(Cl)c1 29%
Cn1cc(S(=O)(=O)N2CCCCCC2)cc1C(=O)N1CCN(c2cccc(C(F)(F)F)c2)CC1 -12.9%
O=C1CCSC2(C(=O)N(Cc3ccc(F)cc3)c3ccccc32)N1c1cccc(F)c1 (stereo not drawn) -1.44%
CCCCN(C)CC(O)Cn1cc(/C=C/C(=O)c2ccc(C)cc2)c2ccccc21 (stereo not drawn) -19.7%
COc1ccc(N2CCN(C(=O)c3sc4nc5n(c(=O)c4c3C)CCC5)CC2)cc1 -13.6%
CCn1cc(C(=O)NCCCOC(C)C)c(=O)c2cc(S(=O)(=O)N(C)C3CCCCC3)ccc21 -14.5%
COc1ccccc1N1CCN(CCCNC(=O)c2cnn(-c3ccc(C)c(C)c3)c2C2CCN(C(=O)OC(C)(C)C)CC2)CC1 -23.4%
CCOC(=O)C1=C(CN2CCN(c3ccc(C)cc3C)CC2)NC(=O)NC1c1ccc(OC)cc1 (stereo not drawn) -26.3%
Cc1ccc(-n2c(=O)c3oc4ccccc4c3n(Cc3cccc(F)c3)c2=O)cc1C -5.86%
COc1ccc(-c2cc(C(F)(F)F)nc(SCC(=O)N(C)Cc3ccccc3)n2)cc1 -7.92%
O=C(NCCn1cc(SCc2ccccc2F)c2ccccc21)c1cccs1 13.6%
COc1cccc(Cn2nnc3c(=O)[nH]c(C4CCN(C(=O)c5ccccc5Cl)CC4)nc32)c1 -12.1%
O=C(NCCc1ccccc1Cl)c1sc2ncccc2c1-n1cccc1 -15.1%
CN(C)CCNc1ncnc2c1cnn2-c1cccc(Cl)c1 -20.9%
Cc1ccc(-n2cc(-c3ccccc3)nc2S(=O)(=O)CC(=O)Nc2ccc(F)cc2)cc1 -15.7%
CCc1cccc(-n2c(C)nc3c(cnn3-c3ccc(C)c(C)c3)c2=O)c1 -7.64%
COc1cccc2sc(N(Cc3cccnc3)C(=O)Cc3ccccc3)nc12 3.59%
Cc1nc(Nc2ccc(Cl)cc2)cc(-c2ccccc2)n1 -16.1%
Cc1ccc(-c2nnc(Nc3ccc(O)cc3)c3ccccc23)cc1S(=O)(=O)NC(C)(C)CO -17.1%
COc1ccc(Nc2cc(C)c3cc(NC(=O)COc4cccc(C)c4)ccc3n2)cc1 -4.04%
Cc1ccc(Cl)cc1N1CCN(C(=O)COc2cc(=O)n(C)c3ccccc23)CC1 -14%
COc1ccc(OC)c(NC(=O)CSc2nccn2-c2cc(C)cc(C)c2)c1 -12.5%
CCCn1cc(S(=O)(=O)c2ccc(OC)cc2)c(=O)c2cc(F)c(N3CCCCCC3)cc21 -18%
CCn1cc(S(=O)(=O)c2ccc(C)cc2C)c(=O)c2cc(F)c(N3CCCC3)cc21 -13.2%
COC(=O)c1c(NC(=O)COc2ccc(OC)cc2)sc2c1CCC(C)C2 (stereo not drawn) 10.7%
CCCCn1cc(S(=O)(=O)c2ccccc2)c(=O)c2cc(F)c(N3CCC(C)CC3)cc21 -5.39%
Cc1cc(N(C)Cc2ccccc2)n2nc(-c3ccc(C(C)(C)C)cc3)nc2n1 -20.3%
Cc1ccc(C(C)C)c(OCC(=O)NCC2(N3CCOCC3)CCCCC2)c1 -17%
CCOc1ccc(-c2n[nH]c3c2C(c2ccccc2OC)N(c2ccc(Br)cc2)C3=O)cc1 (stereo not drawn) -3.54%
CCOC(=O)c1ccc(CSc2nnc3cc(C)c4ccccc4n23)cc1 -26.7%
CN(C)c1ccc(-c2nnc3n(Cc4ccccc4)c(=O)c4ccccc4n23)cc1 -21.5%
Cc1nc2nc(SCC(=O)NCCc3ccc(Cl)cc3)nn2c(C)c1Cc1ccccc1Cl -26.8%
CCc1nn(C(C)C(=O)N2CCN(c3cccc(C(F)(F)F)c3)CC2)c(=O)c2cc3occc3n12 (stereo not drawn) -13%
Cc1ccc(-n2ncc(C(=O)NCCc3ccccc3)c2C2CCN(C(=O)OC(C)(C)C)CC2)c(C)c1 -16%
CCc1ccc2c(c1)c(=O)c(S(=O)(=O)c1ccc(Cl)cc1)cn2CC -7.45%
CCOC(=O)C1=C(C)NC(=O)NC1c1cn(-c2ccccc2)nc1-c1ccc(OCC)cc1 (stereo not drawn) -11%
Cc1ccccc1Nc1c(-c2ccc(N3CCOCC3)cc2)nc2ccccn12 3.96%
CC(C)CCN(Cc1ccco1)C(=O)c1cc2c(s1)-c1ccccc1OC2 -14.3%
CCc1ccccc1N(C)C(=O)c1sc2nc3n(c(=O)c2c1C)CCCCC3 -12.4%
O=C(NCc1cccs1)c1ccc(CSc2nc3ccncc3n2Cc2ccccc2F)cc1 -4.38%
Cc1ccc(Cl)cc1N1CCN(C(=O)c2ccc3c(c2)N(Cc2ccccc2)CCS3)CC1 -5.09%
Cc1ccc(-c2nc(C(=O)N3CCN(c4ccccc4)CC3)c3n2CCCCC3)cc1 -10.4%
Cc1ccc(CN(Cc2ccco2)C(=O)COc2cccc(C)c2C)o1 -21.8%
O=C(CN(c1cc(C(F)(F)F)ccc1Cl)S(=O)(=O)c1ccccc1)NCCc1ccccc1 -2.51%
CCCCCn1c(CCCNC(=O)c2cccc(C)c2)nc2ccccc21 -19.1%
Cc1ccc(CN(Cc2ccco2)C(=O)c2ccc(Cl)cc2Cl)cc1 -2.65%
CCOC(=O)c1c(C)oc2nc(C)nc(N3CCN(c4ccccc4F)CC3)c12 -4.5%
Cc1[nH]n2c(=O)cc(-c3ccc(Cl)cc3)nc2c1-c1ccccc1 -18.7%
CCc1ccc(NS(=O)(=O)c2ccc3oc(=O)c4ncn(CC)c4c3c2)cc1 -15.8%
CCn1c(SCc2ccccc2C)nc(=O)c2c(C(=O)OC)cc(C3CC3)nc21 -11.2%

Potency, active:
CC(C)(Sc1ccc(CCN(CCCCC2CCCCC2)C(=O)NC2CCCCC2)cc1)C(=O)O 31.6 µM and 112 µM
